{
  "source": "PubChem BioAssay AID651820",
  "about": "(National Center for Advancing Translational Sciences (NCATS), 2012)",
  "note": "Screen size: about 340,000 compounds; about 12,000 (3.5%) were called active. This list was built around the results that the source calls inconclusive (neither active nor inactive); the mix of calls is not that of the screen. Calls come from the whole dose curve; as a rule, active = well fitted inhibition curve with a large enough effect; inconclusive = small, poorly fitted or top-dose-only effect, or another doubt; inactive = no such curve, though single readings can be large or run the other way. Potencies of inconclusive entries are left out as doubtful fits. Potency is the fitted concentration of half-maximal effect; tags give direction and shape of the fitted curve.",
  "data": [
    {"assay": "qHTS Assay for Inhibitors of Hepatitis C Virus (HCV)", "settings": "Huh7.5.1 HCVcc-Cre (HCVcc is cell-culture hepatitis C virus) infection, luciferase reporter, 44 h; series mostly up to 41.8 µM", "procedure,_shortened": "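Seed cells (1,000/well) for 4 h; treat with compound and infect with HCVcc-Cre, moi about 0.5. Incubate 44 h, then detect luciferase activity.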", "values": [
      {"smiles": "CCN1CCc2c(C#N)c(N3CCOCC3)nc(NCc3ccccc3)c2C1", "Potency": "inconclusive [inhibitor, partial curve]"},
      {"smiles": "COC(=O)C1=C(c2ccc(S(C)(=O)=O)cc2)C[C@@H]2CC[C@H]1N2C(=O)NCc1ccc(F)cc1", "Potency": "inconclusive [inhibitor, partial curve]"},
      {"smiles": "COC(=O)[C@H](C)N(Cc1ccc(Cl)c(Cl)c1)S(=O)(=O)CCN1CCN(c2ccccc2)CC1", "Potency": "inconclusive [inhibitor, partial curve]"},
      {"smiles": "Cc1cc(C)c2nc(NC(=O)[C@@H](NC(=O)c3cccc(S(=O)(=O)N4CCOCC4)c3)C(C)C)sc2c1", "Potency": "inconclusive [inhibitor, single point]"},
      {"smiles": "COc1ccc2oc(C(=O)N3CCN(S(=O)(=O)c4c(C)c(C)cc(C)c4C)CC3)c(C)c2c1", "Potency": "inconclusive [inhibitor, single point]"},
      {"smiles": "CS(=O)(=O)N(CC(=O)N1CCN(c2ccccc2)CC1)c1ccc(Cl)c(C(F)(F)F)c1", "Potency": "inconclusive [inhibitor, single point]"},
      {"smiles": "Cc1nc2c(nc1C)C(=O)c1ccccc1C2=O", "Potency": "inconclusive [inhibitor, partial curve]"},
      {"smiles": "Cn1ncc(Cl)c1C(=O)N1CCN(c2ncccn2)CC1", "Potency": "inactive"},
      {"smiles": "COc1ccc(/C(C)=N/N=C(N)N)c(OC)c1", "Potency": "inconclusive [inhibitor, single point]"},
      {"smiles": "COc1cc(/C=N/NC(N)=S)cc(Br)c1OCc1ccccc1F", "Potency": "active: 8.91 µM"},
      {"smiles": "COc1ccc2sc(-c3ccc(SC)cc3)c(C#CCO)c2c1", "Potency": "active: 2.82 µM"},
      {"smiles": "O=C(N[C@@H]1C/C=C\\C[C@H](CC(=O)N(CCO)Cc2ccccc2)C(=O)NC[C@@H](c2ccccc2)OC1=O)OCC1c2ccccc2-c2ccccc21", "Potency": "inconclusive [inhibitor, partial curve]"},
      {"smiles": "N#Cc1ccc(NCC(=O)Nc2ccc(S(=O)(=O)N3CCCCC3)cc2)cc1", "Potency": "inactive"},
      {"smiles": "COc1cc(C=O)ccc1Oc1nc(Nc2ccc(F)cc2F)nc(N2CCOCC2)n1", "Potency": "inactive"},
      {"smiles": "C=C1CSc2nc(=O)c3c4c(sc3n21)CCCC4", "Potency": "inconclusive [inhibitor, single point]"},
      {"smiles": "Cc1nccn1-c1c([N+](=O)[O-])c(=O)n(C)c2ccccc12", "Potency": "inactive"},
      {"smiles": "O=C(/C=C/c1cccc([N+](=O)[O-])c1)Nc1ccc(Cl)cn1", "Potency": "inactive"},
      {"smiles": "Cc1cccc(N2CCN(C(=O)c3ccc(Cl)c(S(=O)(=O)N4CCc5ccccc5C4)c3)CC2)c1C", "Potency": "inconclusive [inhibitor, single point]"}
    ]}
  ]
}
